Hit rate of the full screen: of about 310,000 compounds, about 2,200 (0.71%) showed an effect of 50% or more. Effects have a minus sign here. This is one part of the list.
Each compound was assayed against human ether-à-go-go-related gene (hERG) potassium channel (human, UniProt Q12809) (assay: primary screen, population patch clamp on CHO cells stably expressing hERG).
Sequence of human ether-à-go-go-related gene (hERG) potassium channel (Q12809 whole entry, looked up): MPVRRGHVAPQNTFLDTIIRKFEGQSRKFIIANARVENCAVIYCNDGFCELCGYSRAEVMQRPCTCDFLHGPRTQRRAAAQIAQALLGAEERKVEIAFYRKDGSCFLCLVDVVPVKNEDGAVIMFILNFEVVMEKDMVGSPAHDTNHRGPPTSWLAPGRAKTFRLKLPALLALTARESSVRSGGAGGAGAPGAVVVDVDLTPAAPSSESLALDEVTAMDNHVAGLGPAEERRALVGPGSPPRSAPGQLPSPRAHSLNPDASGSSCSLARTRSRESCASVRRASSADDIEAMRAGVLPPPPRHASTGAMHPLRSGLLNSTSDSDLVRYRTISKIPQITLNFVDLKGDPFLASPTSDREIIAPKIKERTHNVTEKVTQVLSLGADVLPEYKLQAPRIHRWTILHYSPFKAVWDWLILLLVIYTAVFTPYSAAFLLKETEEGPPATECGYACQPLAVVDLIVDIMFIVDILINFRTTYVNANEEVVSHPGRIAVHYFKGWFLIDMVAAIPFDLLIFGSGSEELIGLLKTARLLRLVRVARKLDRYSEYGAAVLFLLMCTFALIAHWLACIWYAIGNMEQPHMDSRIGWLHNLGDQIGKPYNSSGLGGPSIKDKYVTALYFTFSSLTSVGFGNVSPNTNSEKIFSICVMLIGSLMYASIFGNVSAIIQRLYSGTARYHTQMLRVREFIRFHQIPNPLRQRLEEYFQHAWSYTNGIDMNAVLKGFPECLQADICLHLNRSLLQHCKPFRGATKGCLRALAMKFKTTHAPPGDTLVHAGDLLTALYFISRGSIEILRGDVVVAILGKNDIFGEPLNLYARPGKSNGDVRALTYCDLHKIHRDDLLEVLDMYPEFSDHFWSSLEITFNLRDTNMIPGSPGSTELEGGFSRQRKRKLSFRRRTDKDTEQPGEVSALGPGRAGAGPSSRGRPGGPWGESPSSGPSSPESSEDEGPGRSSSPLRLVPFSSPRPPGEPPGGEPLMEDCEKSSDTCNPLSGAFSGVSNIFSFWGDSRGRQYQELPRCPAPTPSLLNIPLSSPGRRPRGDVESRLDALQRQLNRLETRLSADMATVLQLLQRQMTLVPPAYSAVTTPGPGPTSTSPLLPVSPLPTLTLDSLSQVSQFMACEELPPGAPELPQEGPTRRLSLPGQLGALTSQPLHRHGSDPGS
With COc1ccc(C(=O)C23CC4CC(C2)CC(C(=O)c2ccc(OC)cc2)(C4)C3)cc1 the “hERG current change (%, negative = inhibition) at 1uM” value was 11.1%.
In the case of CC(=O)Nc1ccc(-c2csc(NC(=O)C3CCN(S(=O)(=O)c4cccs4)CC3)n2)cc1, the “hERG current change (%, negative = inhibition) at 1uM” value is reported as 7.56%.
CCn1c(SCC(=O)Nc2ccc3c(c2)OCCO3)nc2c(c1=O)SC(C)C2 (stereo not shown) was tested, and the “hERG current change (%, negative = inhibition) at 1uM” value was 14.9%.
With CC(=O)Nn1c(-c2ccccc2)cc2ccccc21 the “hERG current change (%, negative = inhibition) at 1uM” value was 9.84%.
For Cn1c(=O)oc2cc(S(=O)(=O)N3CCC4(CC3)OCCO4)ccc21, the “hERG current change (%, negative = inhibition) at 1uM” value was 5.06%.
With CCc1nc2nc(C)c(NS(=O)(=O)c3ccc(F)cc3)c(=O)n2[nH]1 the “hERG current change (%, negative = inhibition) at 1uM” value was 12.5%.
With Cc1cccc(CN2CCCC(C(=O)N3CCc4ccccc4C3)C2)c1.O=C(O)C(=O)O (stereo not shown) the “hERG current change (%, negative = inhibition) at 1uM” value was -18.6%.
With CSC(=S)NCc1cccnc1 the “hERG current change (%, negative = inhibition) at 1uM” value was 13.4%.
In the case of CC(=O)Nc1ccc2nc(-c3ccncc3)[nH]c2c1, the “hERG current change (%, negative = inhibition) at 1uM” value is reported as 14.3%.
In the case of O=C(NCc1ccccn1)c1ccc(/C=N/O)nc1, the “hERG current change (%, negative = inhibition) at 1uM” value is reported as 10.1%.
In the case of COc1cccc(NC(=O)C2CCC(CNS(=O)(=O)c3cccc4cccnc34)CC2)c1 (stereo not shown), the “hERG current change (%, negative = inhibition) at 1uM” value is reported as 14.4%.
For CCOc1cccc(=O)c2c(C)n(Cc3ccco3)c(C)c12, the “hERG current change (%, negative = inhibition) at 1uM” value was -6.11%.
For COC(=O)c1cc(S(=O)(=O)Nc2cccc(-c3cnco3)c2)oc1C, the “hERG current change (%, negative = inhibition) at 1uM” value was 7.27%.
With CN1CCN(c2ccccc2NC(=O)COc2ccc(C3CCCCC3)cc2)CC1 the “hERG current change (%, negative = inhibition) at 1uM” value was 14.2%.
For COC(=O)C1=C(c2ccc(OC)c(OC)c2)C[C@@H]2CC[C@H]1N2C(=O)N1CCc2cc(OC)c(OC)cc2C1, the “hERG current change (%, negative = inhibition) at 1uM” value was 9.58%.
Cc1sc2ncnc(N3CCC(C(=O)NNC(=O)COc4ccc(Br)cc4)CC3)c2c1C was tested, and the “hERG current change (%, negative = inhibition) at 1uM” value was -28.4%.
With CC(=O)Nc1ccc(S(=O)(=O)NNC(=O)c2cc3c4ccccc4n(C)c3s2)cc1 the “hERG current change (%, negative = inhibition) at 1uM” value was 8.59%.
In the case of Cc1ccc(-n2c([S-])c(C(=O)Nc3ccc(OC(F)F)cc3)[n+]3ccc(C(=O)NCCO)cc23)cc1C, the “hERG current change (%, negative = inhibition) at 1uM” value is reported as 14.3%.
In the case of CCN(CC)CCn1c(SCC(=O)NCCC2=CCCCC2)nc2c(sc3ccccc32)c1=O, the “hERG current change (%, negative = inhibition) at 1uM” value is reported as 15.4%.
For CCOc1ccc(CN2CCN(Cc3cccc4nonc34)CC2CCO)cc1 (stereo not shown), the “hERG current change (%, negative = inhibition) at 1uM” value was -84.6%.
For O=C(Cc1cccc(F)c1F)NC1CCCN(Cc2ccc(Cl)cc2)C1 (stereo not shown), the “hERG current change (%, negative = inhibition) at 1uM” value was 5.47%.
In the case of COc1ccc(NS(=O)(=O)c2ccc3c(c2)N(C(C)=O)CCO3)c(OC)c1, the “hERG current change (%, negative = inhibition) at 1uM” value is reported as 7.56%.
O=C(NCc1ccncc1)c1cc(S(=O)(=O)N2CCOCC2)c(Cl)cc1Cl was tested, and the “hERG current change (%, negative = inhibition) at 1uM” value was 12.6%.
N#CCCC(CCC#N)C1=NCCc2ccccc21 was tested, and the “hERG current change (%, negative = inhibition) at 1uM” value was 8.18%.
In the case of Cc1ccc2nc(CCc3nc4ccc(C)cc4[nH]3)[nH]c2c1.Cl, the “hERG current change (%, negative = inhibition) at 1uM” value is reported as -3.04%.
For C=C(C)COc1ccc(-c2ncnc(C(F)(F)F)c2-c2ccccc2)c(O)c1, the “hERG current change (%, negative = inhibition) at 1uM” value was 14.6%.
In the case of COC(=O)c1ccc(CN2CCC(Oc3cccc(C(=O)N4CCOCC4)c3)CC2)cc1, the “hERG current change (%, negative = inhibition) at 1uM” value is reported as 3.05%.
For COC(=O)c1cc2occc2n1CC(=O)Nc1cc(OC)cc(OC)c1, the “hERG current change (%, negative = inhibition) at 1uM” value was 7.17%.
For CCCCNc1nnc(Cc2ccc(Cl)cc2)c(=O)[nH]1, the “hERG current change (%, negative = inhibition) at 1uM” value was 8.73%.
CC1(c2ccccn2)Nc2ccccc2-c2nc3ccccc3n21 (stereo not shown) was tested, and the “hERG current change (%, negative = inhibition) at 1uM” value was 10.7%.
For CCc1ccc(CN2CCC(C(=O)Nc3ccc(Oc4ccccc4)nc3)CC2)o1, the “hERG current change (%, negative = inhibition) at 1uM” value was -11.7%.
For O=C(NCC(c1ccco1)N1CCc2ccccc21)c1ccccc1 (stereo not shown), the “hERG current change (%, negative = inhibition) at 1uM” value was 7.13%.
For N#Cc1nc(-c2ccco2)oc1N1CCCC1, the “hERG current change (%, negative = inhibition) at 1uM” value was 2.15%.
In the case of C=CCc1cc(OC)ccc1OCCON1C(=O)CCC1=O, the “hERG current change (%, negative = inhibition) at 1uM” value is reported as 6.24%.
COc1ccc(C(c2nnnn2CCc2ccccc2)N2CCN(C3CCCC3)CC2)cc1.Cl (stereo not shown) was tested, and the “hERG current change (%, negative = inhibition) at 1uM” value was -48.4%.
c1ccc2[nH]c(-c3ccc4c(c3)OCO4)nc2c1 was tested, and the “hERG current change (%, negative = inhibition) at 1uM” value was 6.03%.
For CCOC(=O)c1c(-c2ccccc2)csc1NC(=O)C(C)NCc1ccco1.O=C(O)C(=O)O (stereo not shown), the “hERG current change (%, negative = inhibition) at 1uM” value was -8.34%.
With COc1cccc(NC(=O)Cc2c(O)c3ccccc3[nH]c2=O)c1 the “hERG current change (%, negative = inhibition) at 1uM” value was 17.8%.
For O=C(NCc1ccccc1)C1CCN(S(=O)(=O)c2ccc(Cl)cc2)CC1, the “hERG current change (%, negative = inhibition) at 1uM” value was 10%.
With Cc1ccc(CNC(=O)CCn2cc(-c3ccc(C)cc3)nc2-c2ccncc2)cc1 the “hERG current change (%, negative = inhibition) at 1uM” value was -10.5%.
For O=C(COc1ccc(S(=O)(=O)N2CCCC2)cc1)N1CCCC1, the “hERG current change (%, negative = inhibition) at 1uM” value was 11.9%.
CCOC(=O)c1c(C=O)c2sc(C)cc2n1C was tested, and the “hERG current change (%, negative = inhibition) at 1uM” value was 6.56%.
For Cn1cnnc1SCC(=O)Nc1ccc(F)cc1F, the “hERG current change (%, negative = inhibition) at 1uM” value was 28.5%.
